Measurements from the supplement of paper PMC11417369.
The list shows a part of the results.

System: PfAP2-HC AP2 domain (GST-tagged)
Experiment: gcPBM binding intensity (ln(normalized median fluorescence intensity)); higher = stronger DNA binding
Procedure, shortened: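 GST-tagged P. falciparum DNA-binding domains, expressed in E. coli (about 25 μg on average), were applied for 1 h to an Agilent 4 × 180k array of primer-extended double-stranded 36-bp intergenic genomic probes plus negative controls. The binding buffer was 1× PBS with 1% milk, 0.2 mg/ml BSA, 0.5% salmon testes DNA and 0.03% Triton X-100. Bound protein was detected with Alexa488 anti-GST antibody and scanned at 488 nm. Binding intensity is the highest Masliner-normalised natural-log median intensity across replicate spots of either probe orientation.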

Row | Sequence | gcPBM binding intensity (ln)
1 | ATATATATATATATATGTACATATTTTTTATTTTAT [XGTACX_site5761] | 9.69
2 | AATAAAGAAGAAGAAAGTACACATTTCACAAAGGGG [XGTACX_site1308] | 9.78
3 | GATATATGTATAATAACGCACACTACAAAAATAAAA [CACACA_site2100] | 9.92
4 | ATAAAATATAGGTATGCACACACATATACTTCTGTG [CACACA_site8398] | 10.4
5 | AAGGTATGATTAATCACACACATAAATATAAATACA [CACACA_site5464] | 10.1
6 | AAGCTTCATTAATATACACACATATATGTGTATATT [CACACA_site7693] | 10
7 | GTTAGTTTTAGTTCATGTACATAATAGAAAATATAT [XGTACX_site7125] | 9.57
8 | TATATAATACGAATTTGTACATATTAAATAAATTAT [XGTACX_site93] | 9.64
9 | AATGAATGTACATACGCATGTACTTGACTAAATTAT [TGCATGCA_site436] | 9.73
10 | AAACTATACCAAAACACACATACAAAATATAAAAAA [CACACA_site2707] | 10.5
11 | ATTTTCAAATTATCAGATGAATCTTTTTAAGATCTT [XGTACX_negctrl_site598] | 9.4
12 | CTCATATATAACACATGTACACAGATTTTGCAAATG [XGTACX_site6879] | 9.64
13 | GTCTGCATATGGATACGTACACATATATATTAATGT [XGTACX_site2260] | 10
14 | TTTTTTTTTTTTTTTTTACACACTGCATACAAGAAA [CACACA_site3026] | 9.32
15 | GGGAAAAAATGAGGTCGTACATTTTTCATCACAAAT [XGTACX_site8920] | 9.5
16 | TAATATATTATAAACACATGCACATTAATAATAACT [TGCATGCA_site708] | 9.66
17 | TATTTTTTAAAAAAACGTACAAACATAATAAAAATA [XGTACX_site1857] | 9.54
18 | TATATATATATATATGTGCACATTTTATTAAAATGT | 9.67
19 | ATAGACATTTTACTTTGTACATATAAACATATATAT [XGTACX_site2733] | 9.86
20 | ATATGAAACATGAAGGTGCATAATGTGTATATTTAT | 10

Row | Sequence | gcPBM binding intensity (ln)
21 | ACATAAATATATTTTTCACACATCATTAGTTATGAA [CACACA_site4724] | 9.6
22 | TGGTAATACCCATACACACACACATACCCATATATA [CACACA_site5509] | 10.3
23 | ATAAATAAAACAACAGTGCAATAAAATTAGTTGAGG | 10
24 | TTTTTTATGAGGTGGTGTACTTTTTTTTTTTTCTTT [XGTACX_site8550] | 10.2
25 | CAAGAAACAGTGATACGTACACATATATATATATAT [XGTACX_site3229] | 9.91
26 | TTCAAATAAATAGTAGTGCATATTTATTAATGTAAA | 9.5
27 | ATTAAAGAGAGACATCAACACACATACGTATGTATA [CACACA_site8393] | 9.79
28 | TGTATTATCTCTTATGAACACACATTTTTATTTTCA [CACACA_site9107] | 9.86
29 | ATGTTAATTAATGAGGTGCATTGAATATTTCAATAA | 9.53
30 | CATCAATGCTAATTATGTACTTACATAAATAACCCT [XGTACX_site968] | 9.59
31 | ATACCTAAAAAATATACACACATATATATAAATATA [CACACA_site2580] | 10.1
32 | AATTAAATGTTTCTAAGATATACGACCAATGTATTT [CACACA_negctrl_site1694] | 9.4
33 | AATTAATGGGTACATACACACATATATACATACATA [CACACA_site742] | 9.87
34 | TATATATTACATAAAACACACAAAAAAAAAATTAAA [CACACA_site3882] | 9.99
35 | TTTATATTTTTTTTTGCACACTTTAAAAAAATATAT [CACACA_site1146] | 9.7
36 | GAATATTTATGATGAACTATTAATTAATTTTACATA [GTGCAC_negctrl_site353] | 9.41
37 | AAATAAATTGAAGATACATGCATATTTTTTTTTTAT [TGCATGCA_site686] | 9.65
38 | ATGTAGAGTAATAGTTGTACAAGGTGTATATCTCAT [XGTACX_site6370] | 10
39 | TGGTGAAAAATATAAATATAAATAAATATATATATA [CACACA_negctrl_site1725] | 9.56
40 | AGAAGAAAACAAAACACACACATATATCTTAATATA [CACACA_site2231] | 10.2

Row | Sequence | gcPBM binding intensity (ln)
41 | AAAAAAAAAAACTTTGCATGTAATAATAAAAAAAAA [TGCATGCA_site81] | 9.41
42 | ATGATCTGTTTGTTTGTGCACATATATATATATTAA | 9.89
43 | AAAAAAAAAAACGACAGTACAATTATAATTTATATT [XGTACX_site2365] | 9.68
44 | AGAGTTAAACGATATATATAAATATATATATATATA [GTGCAC_negctrl_site316] | 9.7
45 | ATGTCTTAAAAATTAAAACACACGTTCACTTTCATA [CACACA_site3385] | 9.7
46 | AGATCATAATATTATACACACATTAGATATAGGTAA [CACACA_site6809] | 9.85
47 | TATCACCCACCATGAAGTACATATTACCATTTGATG [XGTACX_site845] | 9.79
48 | ATAAATAAATAAAAGCGTACATATATATAAAATATA [XGTACX_site8107] | 9.77
49 | AAAAGGAAGATATATACACACATACAAATATTTATA [CACACA_site7093] | 9.92
50 | TTATACTAAATGAACACACACACATATATATATATA [CACACA_site99] | 10.3
51 | AAATGTAATTTGTCTTTTATTTATATTTGACATGAT [TGCATGCA_negctrl_site520] | 9.48
52 | ATATTAATGATATATACACACATAAGTATTGTATAT [CACACA_site7844] | 9.82
53 | TTGATGGGAAAAAACTTTTTTTTCTTTTTTTCTTTC [CACACA_negctrl_site328] | 9.59
54 | AAAAATTATAAAAAACAAATATTAAATAATTATTAA [GTGCAC_negctrl_site125] | 9.3
55 | TTTTTTTTTTTTTTTTTTTTTTTGCTCAGTGTGGTA [CACACA_negctrl_site29] | 8.94
56 | TTCTATTCACATTTTACACACGTCCATCGCATTTTA [CACACA_site3453] | 10.3
57 | TTTTAAATTTAATTTACACACTTTTCATAGCATTGA [CACACA_site3794] | 9.61
58 | TATATATATGGTTTAACACACGAGATAAAAGTATAT [CACACA_site2867] | 9.93
